Results: PubChem BioAssay AID1345082 (National Center for Advancing Translational Sciences (NCATS), 2018)
Screen size: about 94,000 compounds; about 4,000 (4.3%) were called active. The inconclusive results got no clear call from the source; some entries with a clear call stand among them for comparison. The call rests on the fitted dose curve; in most records, active means well fitted inhibition curve with a large enough effect; inconclusive means small, poorly fitted or top-dose-only effect; inactive means no such curve, though single readings can be large or run the other way. Potencies of inconclusive entries are doubtful fits and often do not repeat.
On the % scale 0 is the no-effect control and ±100 the full control effect; potency means the concentration at half of the fitted maximal effect; tags describe the fitted curve by direction and shape.

Experiment: Cytotoxic Profiling in NIH 3T3 Cell Line of Diverse Libraries Using Quantitative High-Throughput Screening; further: nearly all actives have a fitted effect of over 55% in size
Conditions: NIH 3T3 viability, CellTiter-Glo ATP luminescence, 48-72 h; activity change, negative = cytotoxicity: at 96.7 µM (top of the series) unless noted; series mostly up to 96.7 µM
Method in brief: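 ATP-dependent luminescence (CellTiter-Glo) served as the viability signal for NIH 3T3 cells treated with compound for 48 or 72 hr at 37 °C.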
With `O=C(O)COc1ccc(-c2nccc3c2C(=O)N(Cc2ccccc2)CC(COc2ccc(Cl)cc2)O3)cc1` (centres undefined) the Potency was inconclusive: 70.8 µM [inhibitor, single point]. For `O=c1c2c3c(nn2ccn1Cc1ccccc1)CCCC3`, the Potency was inconclusive: 50.1 µM [inhibitor, single point]. With `Cc1c(CC(=O)NCc2ccon2)c2c(n1Cc1ccccc1F)CCCC2=O` the Potency was inconclusive: 31.6 µM [inhibitor, full curve]. With `COc1ccc(N2CC(c3noc(-c4ccc(Cl)cc4OC)n3)CC2=O)cc1` (centres undefined) the Potency was inconclusive: 44.7 µM [inhibitor, partial curve, poor fit]. For `CC1(C)[C@H]2CC[C@@H](CNC(=O)c3ccc4ccccc4n3)[C@@H]1C2`, the Potency was active: 89.1 µM. For `OC1(c2nc(Nc3cccc(C(F)(F)F)c3)n[nH]2)CCOCC1`, the Potency was inconclusive: 56.2 µM [inhibitor, partial curve, poor fit]. With `COC1CCC(C(=O)N2CCC3(CC2)OC(=O)N(CCOc2ccccc2)C3(C)c2cccnc2)CC1` (centres undefined) the Potency was inconclusive: 2.82 µM [inhibitor, full curve, poor fit]. For `c1ccc(N2CCN(C3CCCN(Cc4cn[nH]c4C4CCCCC4)C3)CC2)cc1` (centres undefined), the “activity change, negative = cytotoxicity” value was inactive: -22.3%. In the case of `COc1ccc2c(c1)CN(Cc1ccccc1)C(=O)CCN2CC(O)C(F)(F)F` (centres undefined), the Potency is reported as inconclusive: 50.1 µM [inhibitor, partial curve, poor fit]. For `N#Cc1ccc(CN2CCCC3(COc4ccccc4C(=O)N3)C2)cc1` (centres undefined), the Potency was inconclusive: 44.7 µM [inhibitor, partial curve, poor fit]. In the case of `O=C(NCc1ccccn1)c1ccc2nnc(Cc3ccco3)n2c1`, the “activity change, negative = cytotoxicity” value is reported as inactive: -13.1%. For `Cc1nc(CN2C[C@H](C(=O)Nc3cccc(F)c3)C[C@@H]2c2ccc(F)cc2)cs1`, the Potency was active: 39.8 µM. With `CCN1C(=O)C2(CCN(S(=O)(=O)c3cc(Cl)ccc3OC)CC2)c2ccccc21` the Potency was inconclusive: 50.1 µM [inhibitor, partial curve, poor fit]. For `O=C(C[C@@H]1CCNC[C@@H]1Cc1cc(-c2ccccc2)on1)NC1CCCCC1`, the Potency was inconclusive: 44.7 µM [inhibitor, full curve, poor fit]. In the case of `COc1ccc(C(=O)N[C@@H]2CCC[C@@H]2C(=O)NCCc2cccs2)cc1`, the Potency is reported as inconclusive: 50.1 µM [inhibitor, partial curve, poor fit]. For `Cn1c(C(=O)Nc2ccc(N3CCOCC3)cc2)cc2c1CCN(Cc1ccccc1)C2`, the “activity change, negative = cytotoxicity” value was inactive: -21.6%. With `COc1ccc(-c2noc([C@@H]3Cc4nc[nH]c4CN3C(=O)CC(C)(C)CC(=O)O)n2)cc1` the “activity change, negative = cytotoxicity” value was inactive: -2.61%. With `CCS(=O)(=O)Nc1ccc(C2(C(=O)Nc3cccc(F)c3C)CCCCC2)cc1` the Potency was inconclusive: 39.8 µM [inhibitor, partial curve, poor fit]. With `Cc1noc([C@@H]2CN(C(=O)c3occc3C)C[C@H]2CO)n1` the “activity change, negative = cytotoxicity” value was inactive: -9.04%. With `CC(O)CNC(=O)C1CCN(c2nc(-c3ccccc3)nc3c2CCC3)CC1` (centres undefined) the “activity change, negative = cytotoxicity” value was inactive: -26.1%. With `Cc1ccsc1CN1CCCC12Cc1ccccc1CNC2=O` (centres undefined) the “activity change, negative = cytotoxicity” value was inactive: -6.5%. With `COc1ccc(CN2CCCC23Cc2ccccc2CNC3=O)c(OC)n1` (centres undefined) the “activity change, negative = cytotoxicity” value was inactive: -11.8%. In the case of `CC(C)c1cc(C(=O)N2CCN(c3ncccc3C#N)CC2)n(C)n1`, the Potency is reported as inconclusive: 3.16 µM [inhibitor, full curve, poor fit]. For `CC(=O)NC[C@@H]1C=C(C)[C@H](CC(=O)N2CCCC2)C[C@H]1C(C)C`, the “activity change, negative = cytotoxicity” value was inactive: 3.57% [at 174 µM]. In the case of `COc1cccc(CN2Cc3nc(-c4cnn(C)c4)ccc3OCC2=O)c1`, the Potency is reported as inconclusive: 100 µM [inhibitor, partial curve]. In the case of `COc1cccc(CCC2CCCN(C(=O)C3CCCC3)C2)c1` (centres undefined), the Potency is reported as inconclusive: 25.1 µM [inhibitor, full curve]. For `COc1ccc(N2CC(C(=O)NCc3cccc(Cl)c3)NC2=O)cc1` (centres undefined), the “activity change, negative = cytotoxicity” value was inactive: -20.6%. In the case of `CC(=O)N(C1CCOCC1)C1CCN(C(=O)c2ccc(C)cc2)CC1`, the “activity change, negative = cytotoxicity” value is reported as inactive: -19.6%. With `COc1ccc(CN(Cc2ccc(OC)cc2)[C@@H]2CO[C@H](CNC(=O)CC(C)(C)C)[C@H]2O)cc1` the Potency was inconclusive: 79.4 µM [inhibitor, partial curve]. For `CN(CCc1noc(C2CN(S(=O)(=O)c3cccnc3)C2)n1)C(=O)C1CC1`, the “activity change, negative = cytotoxicity” value was inactive: -4.24%. With `CC(O)CNC(=O)c1ccc(-c2ncc3cnc(C4=CCOCC4)cn23)cc1` (centres undefined) the Potency was inconclusive: 100 µM [inhibitor, partial curve, poor fit]. With `Cc1noc([C@@H]2CN(C(=O)Cc3ccsc3)C[C@H]2C(N)=O)n1` the “activity change, negative = cytotoxicity” value was inactive: -10.5%. For `O=c1c2nc(-c3ccccc3F)ccc2ncn1Cc1ccccn1`, the Potency was inconclusive: 56.2 µM [inhibitor, partial curve, poor fit]. For `Cc1nc2ccc(-c3nc(C4CCOC4)no3)cc2s1` (centres undefined), the Potency was inconclusive: 56.2 µM [inhibitor, partial curve, poor fit]. For `CN1CCC(NC(=O)C2(C)CN(C)Cc3ccc(Nc4ccccc4)nc32)CC1` (centres undefined), the Potency was inconclusive: 89.1 µM [inhibitor, partial curve]. With `COc1ccc(-c2cc3c(ccn3Cc3ccncc3)c(N3CCOCC3)n2)cn1` the Potency was inconclusive: 39.8 µM [inhibitor, partial curve, poor fit]. For `CCNC(=O)Nc1ccc(OCC(=O)NCc2ccc(N3CCOCC3)cc2)nc1`, the “activity change, negative = cytotoxicity” value was inactive: -7.23%. With `COCCCNC(=O)C1CCCN(Cc2ccncc2)CCC(=O)NCC1` (centres undefined) the “activity change, negative = cytotoxicity” value was inactive: -4.2%. In the case of `Fc1ccc(-c2cnc3n2C[C@H](CN(Cc2ccccc2)Cc2ccccc2)OC3)cc1`, the Potency is reported as active: 28.2 µM. For `C=CCOc1c(OC)ccc2c1CN(Cc1ccco1)C(=O)CCN2CC(O)Cc1ccccc1` (centres undefined), the Potency was inconclusive: 44.7 µM [inhibitor, partial curve, poor fit]. In the case of `CN1CCN(C(=O)c2ccc(N3CC4CC(C3)[C@H]3CCCC(=O)N3C4)nc2)CC1` (some centres undefined), the “outcome” value is reported as “inactive”. For `O=C(c1cnccn1)N1CCCC(Cc2nc(C3CCOCC3)no2)C1` (centres undefined), the “outcome” value was “inactive”. For `COCCNC(=O)C1CCCN(c2nccc(Nc3ccccc3OC)n2)C1` (centres undefined), the Potency was inconclusive: 44.7 µM [inhibitor, partial curve, poor fit]. In the case of `CN(C)C(=O)N1CCN(c2cc(Cl)ncn2)C(=O)C1`, the Potency is reported as inconclusive: 112 µM [inhibitor, single point].
